Reference: PubChem BioAssay AID1865 (National Center for Advancing Translational Sciences (NCATS), 2009)
Out of some 280,000 compounds screened, about 540 (0.19%) were called active. The inconclusive results got no clear call from the source; some entries with a clear call stand among them for comparison. The call rests on the fitted dose curve; in most records, active means well fitted activation curve with a large enough effect; inconclusive means small, poorly fitted or top-dose-only effect; inactive means flat fitted curve, though single readings scatter. Potencies of inconclusive entries are doubtful fits and often do not repeat.

Assay: Quantitative High-Throughput Screen for Regulators of Epigenetic Control; further: nearly all actives have a fitted effect of over 60% in size; on GFP activation: % of control where 0% means no effect
Conditions: murine LDR cells, GFP reporter derepression, 30 h; GFP activation: at 53.9 µM (top of the series)
Outline: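 Murine LDR cells bearing a silenced CMV-driven GFP reporter were exposed to compound for 30 h at 37 C. After PBS washes, GFP-positive cells (20-120 um objects) counted by laser-scanning microplate cytometry.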
Potency means the concentration at half of the fitted maximal effect; tags describe the fitted curve by direction and shape.

Compound | Potency | GFP activation
Cc1ccccc1Cn1nc(C)c(NC(=O)c2cc(-c3ccco3)on2)c1C | inconclusive: 35.5 µM [activator, single point] | –
COc1cc([C@@H]2[C@H]3CNCC=C3C(C#N)=C(N)C2(C#N)C#N)ccc1OC(C)C | inconclusive: 25.1 µM [activator, single point] | –
O=C1CCCC(O)=C1Sc1ccccc1C(=O)O | – | inactive: 1.05%
C=C1C(C(=O)Nc2ccc(OCC)cc2)C1C(=O)Nc1ccc(OCC)cc1 (stereo unspecified) | inconclusive: 17.8 µM [activator, single point] | –
CCNC(=S)N/N=C/c1cccs1 | inconclusive: 15.8 µM [activator, single point] | –
C=C1C(=O)OC2C1CC/C(C)=C/CCC1(C)OC21 (stereo unspecified) | inconclusive: 7.08 µM [activator, single point] | –
CCOC(=O)c1cc(C)n(CC2CCC(C(=O)Nc3cccc(C(C)=O)c3)CC2)c1C (stereo unspecified) | – | inactive: -1.06%
CCOc1cc(C(=O)Nc2ccc(-c3cn4cccnc4n3)cc2)cc(OCC)c1OCC | inconclusive: 20 µM [activator, single point] | –
CN(C)c1ccc(N=Cc2nc(-c3ccccc3)oc2OC(=O)c2cccc(Cl)c2)cc1 | inconclusive: 31.6 µM [activator, single point] | –
CCn1nnnc1SCC(=O)NCc1cccs1 | inconclusive: 3.55 µM [activator, single point] | –
COc1cc(O)c(C(=O)c2ccccc2)cc1O | inconclusive: 31.6 µM [activator, single point] | –
CCN1Cc2c(/C=C/c3ccccc3)nc3ccc(OC)cc3c2N(c2cccc(Cl)c2)C1 | inconclusive: 31.6 µM [activator, single point] | –
O=[N+]([O-])c1ccc2c(c1)N([O-])C1(CCCCC1)[N+]2=O | inconclusive: 31.6 µM [activator, single point] | –
CN(C)c1ccc(CNS(=O)(=O)c2ccc(-c3cc(C(F)(F)F)on3)s2)cc1 | – | inactive: -0.0538%
Nc1nnc(-c2cc3c(ccc4ccccc43)oc2=O)s1 | inconclusive: 31.6 µM [activator, single point] | –
COc1cc2c(cc1/C=C/C(=O)O)OC(C)C2 (stereo unspecified) | – | inactive: -0.451%
COc1ccc(-c2ccc(-c3noc(-c4ccccc4OC)n3)c(OC)n2)cc1 | inconclusive: 31.6 µM [activator, single point] | –
COc1cc(/C=C2\SC(=S)N(CC(=O)NC3=NCCS3)C2=O)cc(OC)c1OC | inconclusive: 17.8 µM [activator, single point] | –
COc1cc(Cl)c(C)cc1Nc1nc2ccccc2c2nnc(C)n12 | – | inactive: 3.28%
COC(=O)C1=C(C)Nc2nnnn2C1c1cccnc1 (stereo unspecified) | – | inactive: -0.833%
N=C(N)SCc1cn(-c2ccccc2)nc1-c1ccc(Br)cc1 | – | inactive: -2.56%
CC1CCC2C(=O)N(c3ccc(C(=O)Oc4cccc5cccnc45)cc3)C(=O)C2C1 (stereo unspecified) | inconclusive: 3.98 µM [activator, full curve] | –
O=C(NCCN1CCOCC1)c1cc(-c2cccs2)on1 | inconclusive: 35.5 µM [activator, single point] | –

Compound | Potency | GFP activation
CCS(=O)(=O)c1ncc(Cl)c(C(=O)NCc2ccccc2)n1 | inconclusive: 5.01 µM [activator, single point] | –
CSc1ccc(-c2c(C#N)c(N)nc3c2c(C)nn3-c2ccccc2)cc1 | inconclusive: 28.2 µM [activator, single point] | –
Cc1ccsc1/C=N/NC(=O)CSCc1ccc(Cl)cc1 | – | inactive: 1.54%
Cc1ccc(C(=O)Oc2cc(C)n(C)c(=O)c2)cc1 | inconclusive: 6.31 µM [activator, single point] | –
O=C(Nc1cc(S(=O)(=O)N2CCCC2)ccc1OCC(F)(F)F)c1ccc(F)cc1 | inconclusive: 25.1 µM [activator, single point] | –
O=C(CSc1nc2ccccc2[nH]1)NCc1ccc(F)cc1 | inconclusive: 3.55 µM [activator, single point] | –
Oc1ccc(CNc2ccccc2)c2cccnc12 | – | inactive: 1.06%
COc1ccc(-c2cc(C(F)(F)F)n3ncc(C(=O)NCC4CCCO4)c3n2)cc1OC (stereo unspecified) | inconclusive: 20 µM [activator, single point] | –
N#Cc1c(C(F)(F)F)cc(-c2cccs2)nc1SCC(=O)Nc1cccc(C(F)(F)F)c1 | active: 15.8 µM | –
COc1cc2c(cc1NC(=O)C(C)N1CCN(S(=O)(=O)c3ccc(C)c(C)c3)CC1)oc1ccccc12 (stereo unspecified) | – | inactive: -4.21%
COc1cc(C(=O)N(Cc2cccnc2)c2nc3cc(C)c(C)cc3s2)cc(OC)c1OC | – | inactive: 7.48%
O=C(NCc1ccccn1)c1ccc(Cn2c(=S)[nH]c3ccc(Br)cc3c2=O)cc1 | inconclusive: 35.5 µM [activator, single point] | –
O=C(O)c1ccc(NC2=C(N3CCOCC3)C(=O)c3ccccc3C2=O)cc1 | – | inactive: -0.943%
CCCCCCc1cc2cc(-c3nnc(-c4ccccc4O)o3)c(=O)oc2cc1O | active: 6.31 µM | –
COc1ccc(C)cc1NC(=O)Nc1ccccc1OCc1cc(=O)n2ccccc2n1 | inconclusive: 28.2 µM [activator, single point] | –
O=[N+]([O-])c1ccc(N2CCCCC2)cc1 | inconclusive: 6.31 µM [activator, single point] | –
O=C(/C=C/c1ccc(Cl)cc1)NC(=S)Nc1ccc(NC(=O)c2ccco2)cc1 | inconclusive: 28.2 µM [activator, single point] | –
COc1ccc(CC(=O)Nc2cc(-c3cn4cccnc4n3)ccc2OC)cc1 | – | inactive: 2.58%
CCCS(=O)(=O)c1nnnn1-c1cccc(OC)c1 | – | inactive: 0%
Cn1cnnc1Sc1cc(N2CCN(S(=O)(=O)c3ccc(Cl)c(Cl)c3)CC2)ccc1[N+](=O)[O-] | – | inactive: 2.35%
COc1cc(OC)c(N(C)S(=O)(=O)c2cccc(C(=O)Nc3nnc(C4CC4)s3)c2)cc1Cl | inconclusive: 35.5 µM [activator, single point] | –
COc1cc(OC)c(N(C)C(=O)c2cc3c(=O)oc4ccccc4c3s2)cc1Cl | inconclusive: 35.5 µM [activator, single point] | –
CO/N=C\CC(=O)Nc1ccc(Cl)c(Cl)c1 | – | inactive: 0.935%
